The list shows a part of the results.
These molecules were tested on T1, C. trachomatis L2/434/Bu expressing GFP (CTL2-GFP). Settings: total inclusion area; 28.5 h, 10 µM; inhibitor.
T1 construct: L2/434/Bu GFP intracellular growth in HeLa cells
Design: species or system HeLa; C. trachomatis total inclusion area by high-content imaging, normalised to DMSO
Procedure, shortened: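 After bulk GFP and resorufin fluorescence reads, cells were fixed, stained with Hoechst and imaged by high-content microscopy. Inclusion area and number (GFP) stood in for chlamydial growth, nuclei count (Hoechst) for host cell viability. MICs were derived as for the bulk readout.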
For COc1ccc(-c2nc(NC(=O)c3cccc(S(C)(=O)=O)c3)cnc2-c2ccc(F)cc2)cc1 [CBK037110], the “% of control remaining” value was 77.0926.
In the case of Cc1cccc(=O)n1CCC(=O)N1CCCCC1CN1CCOCC1 (centres unmarked) [CBK306528], the “% of control remaining” value was 72.3589.
For CC(=O)Nc1ccc(CN2CCCC(c3cc4ncccc4[nH]3)C2)cc1 (centres unmarked) [CBK283402], the “% of control remaining” value was 103.611.
CCN(CC(=O)NC(C)C)Cc1nc(-c2cccc(C(F)(F)F)c2)no1 [CBK306039] was tested, and the “% of control remaining” value was 94.1522.
For O=C(NC(=S)Nc1cccc2ncccc12)c1ccc(N2CCOCC2)c([N+](=O)[O-])c1 [CBK267608], the “% of control remaining” value was 95.1765.
For Nc1ncc(-c2cccc(OC(F)(F)F)c2)nc1-c1ccc(CCC(=O)O)cc1 [CBK064071], the “% of control remaining” value was 73.1203.
With CN(C)CCCn1cnc2c1c(=O)[nH]c(=O)n2Cc1ccccc1 [CBK291234] the “% of control remaining” value was 112.262.
For O=C(O)c1cc(NC(=O)C2CCCCC2)cc(C(=O)O)c1 [CBK286972], the “% of control remaining” value was 95.6201.
In the case of O=C(Nc1ccc(I)cc1C(=O)NCCN1CCOCC1)c1ccc(Cl)cc1Cl [CBK266157], the “% of control remaining” value was 114.086.
In the case of C[C@@H](c1ccccc1)n1c(=O)[nH]c2ncc(-c3ccc(C(=O)NC4CCCC4)cc3)nc21 [CBK064542], the “% of control remaining” value was 69.5348.
Cc1cc(C)nc(NS(=O)(=O)c2ccc(Nc3ncnc(N)c3[N+](=O)[O-])cc2)n1 [CBK267217] was tested, and the “% of control remaining” value was 80.1424.
In the case of CCc1nc2cc(NC(=O)CCCn3ccnc3C)ccc2n1CC [CBK281609], the “% of control remaining” value was 74.6136.
In the case of COc1ccc(F)cc1-c1ccc(CC2(C(=O)NC3CCCCC3)CCOCC2)cc1 [CBK285538], the “% of control remaining” value was 107.786.
In the case of CN(C)Cc1ccc(C(=O)N2CCc3[nH]c4ccccc4c3C2)cc1 [CBK281847], the “% of control remaining” value was 106.497.
In the case of Cc1ccc2[nH]c(-c3ccc(NCc4cc5ccc(C)cc5[nH]c4=O)cc3)nc2c1 [CBK286156], the “% of control remaining” value was 100.053.
In the case of COc1ccc2c(c1)C1(CC(=O)N(CC(=O)N(C)C)C1=O)C(=O)N2CCCN(C)S(C)(=O)=O (centres unmarked) [CBK075889], the “% of control remaining” value was 99.345.
For Cc1c(OCc2ccccc2)ccc2c1OC1(CCN(C(=O)c3ccccn3)CC1)CC2=O [CBK156441], the “% of control remaining” value was 97.2377.
With c1ccc(C2=NN=C(N3CCOCC3)SC2)cc1 [CBK006876G] the “% of control remaining” value was 31.742.
CC(C)C(=O)N[C@H]1CC[C@]2(CC1)CNC(=O)c1ccccc1O2 [CBK281675] was tested, and the “% of control remaining” value was 80.767.
In the case of Clc1ccc(OCC2CCN(Cc3c[nH]cn3)CC2)cc1 [CBK281543], the “% of control remaining” value was 85.393.
For CCCn1ccnc1CNc1nc2c(s1)c(C)nn2C [CBK307254], the “% of control remaining” value was 58.0398.
For Cc1nnc2ccc(N3CCN(Cc4cscn4)CC3)nn12 [CBK304910], the “% of control remaining” value was 111.273.
FC(F)(F)c1cccc(-c2nccnc2NCc2ccc3c(c2)OCO3)c1 [CBK037350] was tested, and the “% of control remaining” value was 101.955.
O=C(O)c1cc(Cl)c(OCc2cc(-c3ccccc3)no2)c(Cl)c1 [CBK295297] was tested, and the “% of control remaining” value was 110.99.
For O=C(Nc1cncc(OC2CCNCC2)n1)c1cnccn1 [CBK036372T], the “% of control remaining” value was 87.182.
For Cc1ccccc1C1NC(=O)NC2=C1C(=O)N(C)C2 (centres unmarked) [CBK288026], the “% of control remaining” value was 99.2291.
In the case of CCOC(=O)C1=C(CSc2nc3ccccc3[nH]2)NC(=O)NC1c1cccc([N+](=O)[O-])c1 (centres unmarked) [CBK268889], the “% of control remaining” value was 80.52.
With Cc1cc(C2CCCCCN2C(=O)c2cc(C3CC3)on2)on1 (centres unmarked) [CBK285414] the “% of control remaining” value was 106.542.
For CCn1c(C)nnc1CN(CC1CCCO1)C1CCCC1 (centres unmarked) [CBK304181], the “% of control remaining” value was 57.4467.
In the case of COc1cc(-c2cn3ccnc3c(N(C)CCN(C)C)n2)cc(OC)c1OC [CBK066196], the “% of control remaining” value was 127.448.
For CN(C)Cc1ccc2nc(C(F)(F)F)cc(SCCC(=O)O)c2c1 [CBK149715T], the “% of control remaining” value was 84.2245.
With O=C([C@@H]1C[C@@H]2C=C[C@H]1C2)N1CCC(c2noc3cc(F)ccc23)CC1 [CBK281542] the “% of control remaining” value was 113.185.
CS(=O)(=O)c1ccc(-c2cnc3[nH]c(=O)n(Cc4cccs4)c3n2)cc1 [CBK064383] was tested, and the “% of control remaining” value was 103.931.
In the case of Cc1csc(C(Cc2ccsc2)NC(=O)C2CCCO2)n1 (centres unmarked) [CBK285122], the “% of control remaining” value was 72.5207.
In the case of Fc1ccc(OCc2ccc(-c3nnn[nH]3)cc2)cc1 [CBK267859], the “% of control remaining” value was 78.1722.
With CCc1cc(Br)ccc1S(=O)(=O)NC(CC)COC (centres unmarked) [CBK045265] the “% of control remaining” value was 35.3399.
In the case of CS(=O)(=O)Nc1ccc(C(=O)Nc2ccc(S(=O)(=O)N3CCCCCC3)cc2)cc1 [CBK268288], the “% of control remaining” value was 96.0507.
With O=C(CSc1nnc(-c2ccncc2)s1)Nc1ccc(Cl)cc1 [CBK270069] the “% of control remaining” value was 83.3856.
With COc1ccccc1N(CC(O)Cn1nc(C)cc1C)S(=O)(=O)c1ccccc1 (centres unmarked) [CBK264546] the “% of control remaining” value was 98.3682.
With CCC1CCCCN1C(=O)c1cc(C)oc1C (centres unmarked) [CBK089358] the “% of control remaining” value was 60.2938.
CN(C)CCN1CCN(c2cncc(-c3cccc(C(=O)O)c3)n2)CC1 [CBK065443] was tested, and the “% of control remaining” value was 120.504.
For Cc1ccc(CCC(=O)N2CCNCC2C)c(C)c1 (centres unmarked) [CBK304481], the “% of control remaining” value was 47.6466.
For O=C(O)CC(C(=O)O)c1ccc(F)cc1 (centres unmarked) [CBK268531], the “% of control remaining” value was 106.375.
With O=C(NC1Cc2ccccc2C1)c1cnccc1C(F)(F)F [CBK200353] the “% of control remaining” value was 108.063.
In the case of O=C1c2ccccc2-c2onc3c(NCc4ccccc4)cc(Nc4ccccc4)c1c23 [CBK261979], the “% of control remaining” value was 91.0536.
In the case of Cc1ccc(C(=O)NCCC(=O)Nc2ccccn2)cc1NC(=O)c1ccco1 [CBK298328], the “% of control remaining” value was 118.512.
For c1ccc2c(c1)/C(=N/OCCN1CCCC1)CC21CCCCC1 [CBK013322], the “% of control remaining” value was 68.0249.
For COc1ccc(-c2onc(C)c2-c2cnn(-c3ccccc3)c2)c(O)c1 [CBK296095], the “% of control remaining” value was 113.177.
O=C(COc1cc(Cl)c(Cl)cc1Cl)N1CCN(c2ccc([N+](=O)[O-])cc2)CC1 [CBK263783] was tested, and the “% of control remaining” value was 117.738.
For O=c1c2ccccc2nc(CSc2ncnc3[nH]cnc23)n1-c1cccc(C(F)(F)F)c1 [CBK264991], the “% of control remaining” value was 114.429.

Source: PMC12040169 (PLOS Biology, 2025)
